# Experimental data published in paper PMC13083723 (Patterns, 2026).
# About 190 (3.5%) of roughly 5,400 compounds showed an effect of 50% or more. The list shows a part of the results.
# System: Vero-E6
# Test: primary screen, phospholipidosis by LipidTOX staining; higher = more effect of the substance
# Settings: 10 µM
# Method in brief: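 Single-concentration screen at 10 μM, with DMSO 0.1 v/v % and amiodarone 10 μM as controls. Read-out is LipidTOX Red phospholipid staining, which tolerates aldehyde fixation, in Vero-E6 cells.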
row,SMILES,result_ITMP [%]
1,CC(C)OC(=O)OCOP(=O)(CO[C@H](C)Cn1cnc2c(N)ncnc21)OCOC(=O)OC(C)C,-1.1
2,Nc1cc(Cl)c(NC2=NCCN2)c(Cl)c1,-1.25
3,Cn1cc(CCn2cnc(-c3cnn(C)c3)c2-c2ccc(C#N)cc2)cn1,-7.55
4,CCn1c2ccccc2c2cc(CNCc3ccccc3OC)ccc21,56.5
5,CC(C(=O)O)c1ccc(-c2ccccc2)c(F)c1 (racemic),0.44
6,CN(C)C(=O)[C@H](O)[C@H](Cc1ccccc1)NC(=O)c1cc2cc(Cl)ccc2[nH]1,-3.36
7,CC1(C(=O)O)NCCc2cc(O)c(O)cc21 (stereo not shown),-1.39
8,C=CCN1CC[C@]23c4c5ccc(O)c4O[C@H]2/C(=N/NC(=O)c2ccccc2)CC[C@@]3(O)[C@H]1C5,-0.8
9,Cl/C(=C\n1cncn1)c1ccc(Cl)cc1Cl,-1.41
10,CCC(=O)NC1Cc2ccccc2C(c2ccccc2)C1 (stereo not shown),-2.11
11,O=C(Oc1cc(S(=O)(=O)c2ccccc2)ccc1[N+](=O)[O-])c1ccc(Cl)cc1,-3.25
12,CC(C)(C)c1cc(C(C)(C)C)c2c(c1)C(O)(C(F)(F)F)C(=O)O2 (racemic),-2.16
13,COC[C@H](C)Oc1cc(O[C@@H](C)Cc2ccccc2)cc(C(=O)Nc2ccc(C(=O)O)cn2)c1,-2.14
14,CC(C)CC(N(C)C)C1(c2ccc(Cl)cc2)CCC1 (stereo not shown),7.43
15,CCN1CCN(Cc2ccc(C(=O)Nc3ccc(C)c(Oc4ccc5c(c4)CC(=O)N5)c3)cc2C(F)(F)F)CC1,99.1
16,CN1CCC(=C2c3ccccc3Sc3ccccc32)CC1,44.9
17,Nc1c2ccccc2nc2ccccc12,31.8
18,Cc1ccc(=O)n(-c2ccccc2)c1,0.14
19,CNCCCC1(c2ccccc2)OC(C)(C)c2ccccc21 (stereo not shown),29.5
20,C[C@]12CCC3C(CC[C@]4(O)C[C@@H](O)CC[C@]34C=O)[C@@]1(O)CCC2C1=CC(=O)OC1 (stereo partly shown),-7.08
21,O=S(=O)(N[C@H]1CC[C@@](c2cc(F)ccc2F)(S(=O)(=O)c2ccc(Cl)cc2)CC1)C(F)(F)F,-0.57
22,N[C@@H](Cc1ccc(B(O)O)cc1)C(=O)O,2.53
23,C#C[C@]1(O)CC[C@H]2[C@@H]3CCC4=CCCC[C@@H]4[C@H]3CC[C@@]21C,-6.81

row,SMILES,result_ITMP [%]
1,O=S(c1ccccc1)c1ccc2nnnn2n1 (stereo not shown),4.16
2,N[C@H](Cc1c[nH]c2ccccc12)C(=O)O,2.75
3,O=C(Nc1ccncc1)c1cc([N+](=O)[O-])ccc1Cl,-1.82
4,CCCCCCNC(=O)Nc1ccc(S(=O)(=O)Nc2ccc(CCNC[C@H](O)COc3ccc(O)cc3)cc2)cc1,-1.62
5,O=C(CCCN1CCN(c2ccccn2)CC1)c1ccc(F)cc1,2.76
6,N[C@@H](CS(=O)O)C(=O)O,-1.45
7,CCOc1ccc(-c2ccc(Cn3c(CC(C)(C)C(=O)[O-])c(SC(C)(C)C)c4cc(OCc5ccc(C)cn5)ccc43)cc2)cn1,0.09
8,Nc1nc(-c2ccc(Cl)c(Cl)c2)c(-c2ccncc2)s1,-2.04
9,COCCCN1CCC(NC(=O)c2cc(Cl)c(N)c3c2OCC3)CC1,-5.56
10,COc1oc(=O)c2cc(N)ccc2c1Cl,0.56
11,C#C[C@]1(O)CCC2C3CCC4=C(CCC(=O)C4)C3CC[C@@]21C (stereo partly shown),-3.8
12,COC(=O)[C@H](NC(=O)c1cc(-c2ccccc2)nc2ccccc12)c1ccccc1,-1.53
13,COC(=O)C1=C(C#N)NC(C)=C(C(=O)OC(C)C)C1c1cccc([N+](=O)[O-])c1 (stereo not shown),4.59
14,C[C@@H](CN1CCC(Cc2ccccc2)CC1)[C@@H](O)c1ccc(O)cc1,0.55
15,CN1C(=O)CC[C@H]1c1cccnc1,-4.43
16,Cc1c(CN2CCN(C(=O)[C@H](C)O)CC2)sc2c(N3CCOCC3)nc(-c3cnc(N)nc3)nc12,4.81
17,CC(C)(CO)c1cc2cc(NC(=O)C3(c4ccc5c(c4)OC(F)(F)O5)CC3)c(F)cc2n1C[C@@H](O)CO,4.22
18,Cc1cnc(-c2cc(N3CCN(C(=O)CCS(C)(=O)=O)CC3)ncc2Cl)c(C)c1,-1.89
19,O=c1c(-n2ccnn2)c[nH]n1-c1cc(N2CCOCC2)ncn1,-0.16
20,CC[C@@H]1C(=O)OC[C@@H]1Cc1cncn1C,-4.18
21,CN1CCc2c(c3ccccc3n2Cc2ccc(C(=O)NO)cc2)C1,1.21
22,Cc1ccc(Cl)c(Nc2ccccc2C(=O)[O-])c1Cl,-2.49
23,N[C@@H](Cn1oc(=O)[nH]c1=O)C(=O)O,-2.69

row,SMILES,result_ITMP [%]
1,COCCOCCOc1ccc(C2=N[C@@](C)(C(=O)O)CS2)c(O)c1,-2.45
2,CN1CCN(CCCCN2C(=O)CN(/N=C/c3ccc(-c4ccc(Cl)cc4)o3)C2=O)CC1,22.9
3,COc1ccccc1Oc1c(NS(=O)(=O)c2ccc(C)cn2)nc(-c2ccncc2)nc1OC,-1.45
4,c1nc2c(NC3CCCCC3)nc(Nc3ccc(N4CCOCC4)cc3)nc2[nH]1,-1.32
5,COc1cc2nccc(Oc3ccc(NC(=O)NC4CC4)c(Cl)c3)c2cc1C(N)=O,-1.49
6,CCC(C)(Oc1ccc(C2(c3ccc(OC(C)(CC)C(=O)O)cc3)CCCCC2)cc1)C(=O)O (stereo not shown),-7.93
7,C[C@@H](O[C@H]1OCCN(Cc2nn(P(=O)(O)O)c(=O)[nH]2)[C@H]1c1ccc(F)cc1)c1cc(C(F)(F)F)cc(C(F)(F)F)c1,6.28
8,Nc1ccn([C@@H]2O[C@@](CO)(CCl)[C@@H](O)[C@H]2F)c(=O)n1,-0.65
9,CC(COc1ccccc1)NC(C)[C@H](O)c1ccc(O)cc1 (stereo partly shown),2.04
10,CCn1c(=O)[nH]c2cc(Cl)c(Cl)cc21,-5.92
11,CC(O)Cn1cnc2c1c(=O)n(C)c(=O)n2C (stereo not shown),4.07
12,NCCCC[C@H](N)C(=O)O,-0.65
13,NC(=O)[C@@H](CC1CC1)[C@@H](CCC(F)(F)F)C(=O)N[C@H]1N=C(c2ccccc2)c2cccc(F)c2NC1=O,0.31
14,CCCCCCCCCC(=O)OC1(c2ccc(Cl)cc2)CCN(CCCC(=O)c2ccc(F)cc2)CC1,0.73
15,O=C(OOC(=O)c1ccccc1)c1ccccc1,-9.46
16,CCCCCCCC/C=C\CCCCCCCC(N)=O,-1.41
17,COc1ccccc1N1CCN(CCCCNC(=O)c2ccc(-c3ccc(C(C)=O)cc3)cc2)CC1,6.35
18,C[C@]12CCC(=O)C=C1CC[C@@H]1[C@@H]2CC[C@@]2(C)[C@H]1CC[C@]2(O)C(=O)CO,-5.73
19,NC(=O)CCCCC1CCSS1 (stereo not shown),8.62
20,NS(=O)(=O)c1cc2c(cc1C(F)(F)F)NCNS2(=O)=O,-2.43
21,Cc1ncc(-c2ccnc(Nc3ccc(S(C)(=O)=O)cc3)n2)n1C(C)C,13.9
22,OC[C@H]1O[C@@H](n2cnc3c(N[C@H]4CCC[C@@H]4O)ncnc32)[C@H](O)[C@@H]1O,-1.85
23,COC1(C2=NCCN2)COc2ccccc2O1 (stereo not shown),-1.78

row,SMILES,result_ITMP [%]
1,N#Cc1ccc(-c2csc(NN=C3CCCC3)n2)cc1,-2.43
2,C[C@@H]1[C@H](O)[C@@H](C)/C=C/C=C/CC/C=C/C=C/C=C/C=C/[C@H](O[C@@H]2O[C@H](C)[C@@H](O)[C@H](N)[C@@H]2O)C[C@@H]2O[C@](O)(C[C@@H](O)[C@H](O)CC[C@@H](O)C[C@@H](O)C[C@@H](O)CC(=O)O[C@H]1C)C[C@H](O)[C@H]2C(=O)O,1.67
3,O=C(/C=C/c1ccc(O)cc1)c1ccc(O)cc1O,-6.35
4,Cc1c(NC(=O)c2cccnc2)c(=O)n(-c2ccccc2)n1C,-8.04
5,CS(=O)(=O)OCCCCOS(C)(=O)=O,-2.03
6,CC1(C)CC(O)CC(C)(C)N1[O],-2.69
7,OCc1c[nH]c2ccccc12,1.08
8,CC(=O)N(C)c1cccc(-c2ccnc3c(C(=O)c4cccs4)cnn23)c1,-1.02
9,COC(=O)C1=C(C)NC(C)=C([N+](=O)[O-])[C@H]1c1ccccc1C(F)(F)F,-1.73
10,Cc1ccc(C(=O)Nc2ccc(Oc3cc4cnn(C)c4cc3-c3cn[nH]c3)c(F)c2)c(=O)n1-c1ccc(F)cc1,2.44
11,N#CCNC(=O)c1ccc(-c2ccnc(Nc3ccc(N4CCOCC4)cc3)n2)cc1,24.6
12,CN1CCCC1CCSc1ccc(O)cc1 (stereo not shown),2.34
13,CN1CC[C@@H](NC(=O)Nc2ccc(C#N)cc2)C[C@@H]1c1nc2ccccc2[nH]1,-1.63
14,CC(C)Cc1ccc(C(C)C(=O)O)cc1 (stereo not shown) [R4A_0001344_001 / SPE_A17655518],-3.6
15,Cc1ccc(S(=O)(=O)Cc2nc(-c3ccc(C(=O)NCc4cccnc4)cc3)oc2C)cc1,-2.5
16,C#CCN(C)C(C)Cc1ccccc1 (stereo not shown),3.13
17,CC(=C(CCOC(=O)C(C)C)SSC(CCOC(=O)C(C)C)=C(C)N(C=O)Cc1cnc(C)nc1N)N(C=O)Cc1cnc(C)nc1N (stereo in doubt),-2.27
18,c1ccc2c(c1)Sc1ccccc1N2CC1CN2CCC1CC2 (stereo not shown),71.6
19,Cc1cc(Cn2nnc3c(-c4ccco4)nc(N)nc32)ccc1N,-1.13
20,CC/C(=C(\c1ccc(O)cc1)c1ccc(OCCNC)cc1)c1ccccc1,27.8
21,O=C(Nc1cc(-c2ccccc2)nn1-c1ccccc1F)c1ccc([N+](=O)[O-])cc1,-0.13
22,Nc1nc(=O)c2c([nH]1)NCC(CNc1ccc(C(=O)N[C@@H](CCC(=O)[O-])C(=O)[O-])cc1)N2C=O (stereo partly shown),-2.25
